{"source": "the supplement of paper PMC8728848", "binders": {"B1": {"name": "Gal 4 (Homo sapiens), Q8K419 (protein)", "chain": "MAYVPAPGYQPTYNPTLPYKRPIPGGLSVGMSVYIQGMAKENMRRFHVNFAVGQDDGADVAFHFNPRFDGWDKVVFNTMQSGQWGKEEKKKSMPFQKGKHFELVFMVMPEHYKVVVNGNSFYEYGHRLPVQMVTHLQVDGDLELQSINFLGGQPAAAPYPGAMTIPAYPAGSPGYNPPQMNTLPVMTGPPVFNPRVPYVGALQGGLTVRRTIIIKGYVLPTARNFVINFKVGSSGDIALHLNPRIGDSVVRNSFMNGSWGAEERKVAYNPFGPGQFFDLSIRCGMDRFKVFANGQHLFDFSHRFQAFQMVDTLEINGDITLSYVQI"}}, "experiment_in_all_cases": "glycan array binding signal (z-score within array); higher = stronger binding", "settings_in_all_cases": "glycan notation: IUPAC condensed, linker removed", "key": {"[1]": {"biological_target": "GlcNAc(b1-2)[GlcNAc(b1-6)]Man(a1-6)[GlcNAc(b1-2)Man(a1-3)][GlcNAc(b1-4)]Man(b1-4)GlcNAc(b1-4)GlcNAc", "in_short": "(§1)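 Columns mapping to the same glycan were averaged after glycan names were converted to IUPAC-condensed notation. The data come from 3228 arrays in the Consortium for Functional Glycomics database, limited to those with an available protein sequence. Binding is reported as a within-array Z-score averaged across arrays of one protein sequence and across linkers.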"}, "GlcNAc(b1-3)Gal": {"biological_target": "GlcNAc(b1-3)Gal", "in_short": "as §1"}, "[2]": {"biological_target": "GlcNAc(b1-3)Gal(b1-3)GalNAc", "in_short": "as §1"}, "GlcNAc(b1-3)Gal(b1-4)Glc": {"biological_target": "GlcNAc(b1-3)Gal(b1-4)Glc", "in_short": "as §1"}, "[3]": {"biological_target": "GlcNAc(b1-3)Gal(b1-4)GlcNAc", "in_short": "as §1"}, "[4]": {"biological_target": "GlcNAc(b1-3)Gal(b1-4)GlcNAc(b1-3)Gal(b1-4)GlcNAc", "in_short": "as §1"}, "GlcNAc(b1-3)GalNAc": {"biological_target": "GlcNAc(b1-3)GalNAc", "in_short": "as §1"}, "GlcNAc(b1-3)Man": {"biological_target": "GlcNAc(b1-3)Man", "in_short": "as §1"}, "[5]": {"biological_target": "GlcNAc(b1-3)[GlcNAc(b1-4)][GlcNAc(b1-6)]GlcNAc", "in_short": "as §1"}, "[6]": {"biological_target": "GlcNAc(b1-3)[GlcNAc(b1-6)]Gal(b1-4)GlcNAc", "in_short": "as §1"}, "[7]": {"biological_target": "GlcNAc(b1-3)[GlcNAc(b1-6)]GalNAc", "in_short": "as §1"}, "[8]": {"biological_target": "GlcNAc(b1-4)Gal(b1-4)GlcNAc", "in_short": "as §1"}, "GlcNAc(b1-4)GlcNAc": {"biological_target": "GlcNAc(b1-4)GlcNAc", "in_short": "as §1"}, "[9]": {"biological_target": "GlcNAc(b1-4)GlcNAc(b1-4)GlcNAc", "in_short": "as §1"}, "[10]": {"biological_target": "GlcNAc(b1-4)GlcNAc(b1-4)GlcNAc(b1-4)GlcNAc(b1-4)GlcNAc", "in_short": "as §1"}, "[11]": {"biological_target": "GlcNAc(b1-4)GlcNAc(b1-4)GlcNAc(b1-4)GlcNAc(b1-4)GlcNAc(b1-4)GlcNAc", "in_short": "as §1"}, "[12]": {"biological_target": "GlcNAc(b1-4)[GlcNAc(b1-6)]GalNAc", "in_short": "as §1"}, "[13]": {"biological_target": "GlcNAc(b1-6)Gal(b1-4)GlcNAc", "in_short": "as §1"}, "GlcNAc(b1-6)GalNAc": {"biological_target": "GlcNAc(b1-6)GalNAc", "in_short": "as §1"}, "GlcNAc3Prop(b1-4)GlcNAc": {"biological_target": "GlcNAc3Prop(b1-4)GlcNAc", "in_short": "as §1"}, "[14]": {"biological_target": "GlcNAc6S(b1-3)Gal(b1-4)GlcNAc", "in_short": "as §1"}, "Kdn(a2-3)Gal(b1-3)GalNAc": {"biological_target": "Kdn(a2-3)Gal(b1-3)GalNAc", "in_short": "as §1"}, "Kdn(a2-3)Gal(b1-3)GlcNAc": {"biological_target": "Kdn(a2-3)Gal(b1-3)GlcNAc", "in_short": "as §1"}, "Kdn(a2-3)Gal(b1-4)Glc": {"biological_target": "Kdn(a2-3)Gal(b1-4)Glc", "in_short": "as §1"}, "Kdn(a2-3)Gal(b1-4)GlcNAc": {"biological_target": "Kdn(a2-3)Gal(b1-4)GlcNAc", "in_short": "as §1"}, "[15]": {"biological_target": "Kdn(a2-3)Gal(b1-4)[Fuc(a1-3)]GlcNAc", "in_short": "as §1"}, "Kdn(a2-6)Gal(b1-4)GlcNAc": {"biological_target": "Kdn(a2-6)Gal(b1-4)GlcNAc", "in_short": "as §1"}, "[16]": {"biological_target": "Man(a1-2)Man(a1-2)Man(a1-3)Man", "in_short": "as §1"}, "[17]": {"biological_target": "Man(a1-2)Man(a1-2)Man(a1-6)[Man(a1-3)]Man", "in_short": "as §1"}, "Man(a1-2)Man(a1-3)Man": {"biological_target": "Man(a1-2)Man(a1-3)Man", "in_short": "as §1"}, "[18]": {"biological_target": "Man(a1-2)Man(a1-3)[Man(a1-2)Man(a1-6)]Man", "in_short": "as §1"}, "[19]": {"biological_target": "Man(a1-2)Man(a1-3)[Man(a1-2)Man(a1-6)]Man(a1-6)[Man(a1-2)Man(a1-2)Man(a1-3)]Man", "in_short": "as §1"}, "[20]": {"biological_target": "Man(a1-2)Man(a1-3)[Man(a1-2)Man(a1-6)]Man(a1-6)[Man(a1-2)Man(a1-2)Man(a1-3)]Man(b1-4)GlcNAc(b1-4)GlcNAc", "in_short": "as §1"}, "[21]": {"biological_target": "Man(a1-2)Man(a1-3)[Man(a1-6)]Man(a1-6)[Man(a1-2)Man(a1-3)]Man(b1-4)GlcNAc(b1-4)GlcNAc", "in_short": "as §1"}, "[22]": {"biological_target": "Man(a1-2)Man(a1-6)[Man(a1-3)]Man(a1-6)[Man(a1-2)Man(a1-2)Man(a1-3)]Man", "in_short": "as §1"}, "[23]": {"biological_target": "Man(a1-2)Man(a1-6)[Man(a1-3)]Man(a1-6)[Man(a1-2)Man(a1-2)Man(a1-3)]Man(b1-4)GlcNAc(b1-4)GlcNAc", "in_short": "as §1"}, "Man(a1-3)[Man(a1-6)]Man": {"biological_target": "Man(a1-3)[Man(a1-6)]Man", "in_short": "as §1"}, "[24]": {"biological_target": "Man(a1-3)[Man(a1-6)]Man(a1-6)[Man(a1-2)Man(a1-3)]Man(b1-4)GlcNAc(b1-4)GlcNAc", "in_short": "as §1"}, "[25]": {"biological_target": "Man(a1-3)[Man(a1-6)]Man(a1-6)[Man(a1-3)]Man", "in_short": "as §1"}, "[26]": {"biological_target": "Man(a1-3)[Man(a1-6)]Man(a1-6)[Man(a1-3)]Man(b1-4)GlcNAc(b1-4)GlcNAc", "in_short": "as §1"}, "[27]": {"biological_target": "Man(a1-3)[Man(a1-6)]Man(b1-4)GlcNAc(b1-4)GlcNAc", "in_short": "as §1"}, "[28]": {"biological_target": "Man(a1-3)[Man(a1-6)]Man(b1-4)GlcNAc(b1-4)[Fuc(a1-6)]GlcNAc", "in_short": "as §1"}, "Man(a1-6)Man": {"biological_target": "Man(a1-6)Man", "in_short": "as §1"}, "Man(b1-4)GlcNAc": {"biological_target": "Man(b1-4)GlcNAc", "in_short": "as §1"}, "Neu5Ac(a2-3)Gal": {"biological_target": "Neu5Ac(a2-3)Gal", "in_short": "as §1"}}, "note": "The other results are listed elsewhere or left out."}
{"binder": "B1", "values": [{"measurement": "glycan array binding signal (z-score)", "setting": "[1]", "value": -0.197}, {"measurement": "glycan array binding signal (z-score)", "setting": "GlcNAc(b1-3)Gal", "value": -0.199}, {"measurement": "glycan array binding signal (z-score)", "setting": "[2]", "value": -0.004}, {"measurement": "glycan array binding signal (z-score)", "setting": "GlcNAc(b1-3)Gal(b1-4)Glc", "value": 0.292}, {"measurement": "glycan array binding signal (z-score)", "setting": "[3]", "value": -0.118}, {"measurement": "glycan array binding signal (z-score)", "setting": "[4]", "value": -0.105}, {"measurement": "glycan array binding signal (z-score)", "setting": "GlcNAc(b1-3)GalNAc", "value": -0.206}, {"measurement": "glycan array binding signal (z-score)", "setting": "GlcNAc(b1-3)Man", "value": -0.204}, {"measurement": "glycan array binding signal (z-score)", "setting": "[5]", "value": -0.185}, {"measurement": "glycan array binding signal (z-score)", "setting": "[6]", "value": -0.209}, {"measurement": "glycan array binding signal (z-score)", "setting": "[7]", "value": -0.2}, {"measurement": "glycan array binding signal (z-score)", "setting": "[8]", "value": -0.206}, {"measurement": "glycan array binding signal (z-score)", "setting": "GlcNAc(b1-4)GlcNAc", "value": -0.202}, {"measurement": "glycan array binding signal (z-score)", "setting": "[9]", "value": -0.205}, {"measurement": "glycan array binding signal (z-score)", "setting": "[10]", "value": -0.208}, {"measurement": "glycan array binding signal (z-score)", "setting": "[11]", "value": -0.206}, {"measurement": "glycan array binding signal (z-score)", "setting": "[12]", "value": -0.202}, {"measurement": "glycan array binding signal (z-score)", "setting": "[13]", "value": -0.209}, {"measurement": "glycan array binding signal (z-score)", "setting": "GlcNAc(b1-6)GalNAc", "value": -0.204}, {"measurement": "glycan array binding signal (z-score)", "setting": "GlcNAc3Prop(b1-4)GlcNAc", "value": -0.2}, {"measurement": "glycan array binding signal (z-score)", "setting": "[14]", "value": -0.232}, {"measurement": "glycan array binding signal (z-score)", "setting": "Kdn(a2-3)Gal(b1-3)GalNAc", "value": -0.199}, {"measurement": "glycan array binding signal (z-score)", "setting": "Kdn(a2-3)Gal(b1-3)GlcNAc", "value": -0.198}, {"measurement": "glycan array binding signal (z-score)", "setting": "Kdn(a2-3)Gal(b1-4)Glc", "value": -0.243}, {"measurement": "glycan array binding signal (z-score)", "setting": "Kdn(a2-3)Gal(b1-4)GlcNAc", "value": -0.201}, {"measurement": "glycan array binding signal (z-score)", "setting": "[15]", "value": -0.19}, {"measurement": "glycan array binding signal (z-score)", "setting": "Kdn(a2-6)Gal(b1-4)GlcNAc", "value": -0.198}, {"measurement": "glycan array binding signal (z-score)", "setting": "[16]", "value": -0.198}, {"measurement": "glycan array binding signal (z-score)", "setting": "[17]", "value": -0.198}, {"measurement": "glycan array binding signal (z-score)", "setting": "Man(a1-2)Man(a1-3)Man", "value": -0.194}, {"measurement": "glycan array binding signal (z-score)", "setting": "[18]", "value": -0.202}, {"measurement": "glycan array binding signal (z-score)", "setting": "[19]", "value": -0.204}, {"measurement": "glycan array binding signal (z-score)", "setting": "[20]", "value": -0.178}, {"measurement": "glycan array binding signal (z-score)", "setting": "[21]", "value": -0.208}, {"measurement": "glycan array binding signal (z-score)", "setting": "[22]", "value": -0.201}, {"measurement": "glycan array binding signal (z-score)", "setting": "[23]", "value": -0.206}, {"measurement": "glycan array binding signal (z-score)", "setting": "Man(a1-3)[Man(a1-6)]Man", "value": -0.202}, {"measurement": "glycan array binding signal (z-score)", "setting": "[24]", "value": -0.08}, {"measurement": "glycan array binding signal (z-score)", "setting": "[25]", "value": -0.203}, {"measurement": "glycan array binding signal (z-score)", "setting": "[26]", "value": -0.202}, {"measurement": "glycan array binding signal (z-score)", "setting": "[27]", "value": -0.2}, {"measurement": "glycan array binding signal (z-score)", "setting": "[28]", "value": -0.21}, {"measurement": "glycan array binding signal (z-score)", "setting": "Man(a1-6)Man", "value": -0.192}, {"measurement": "glycan array binding signal (z-score)", "setting": "Man(b1-4)GlcNAc", "value": -0.203}, {"measurement": "glycan array binding signal (z-score)", "setting": "Neu5Ac(a2-3)Gal", "value": -0.196}]}
